# Test results: patent publication US7893299B2, “Interleukin-1 and tumor necrosis factor-αmodulators; syntheses of such modulators and methods of using such modulators” (Nereus Pharmaceuticals, Inc., priority 2005, dated 2011)
# What was measured:
# [1] = tested on: NF-κB DNA binding activity; assay: NF-κB DNA binding activity, EMSA, PC-3; type: cell-based; conditions: TNF-α
# [2] = tested on: NF-κB DNA binding activity; assay: NF-κB DNA binding activity, EMSA, RPMI 8226; type: cell-based; conditions: LPS
# IRAK1 = assay: phosphorylation of IRAK1 and IκBα upon LPS stimulation in RAW264.7 cells; type: cell-based; conditions: LPS-stimulated RAW264.7; 1, 5, 10 and 20 μM
# Experimental: Cells were treated with 1, 5, 10 and 20 μM of NPI-1387 for 1 hour and then stimulated with 10 ng/ml LPS for 10 or 30 min. To determine the phosphorylation of IRAK1, whole cell extracts were prepared in RIPA buffer [0.9% NaCl, 50 mM Tris-HCl (pH7.4), 1% Triton X-100, 1 mM EDTA, 0.25% Na-deoxycholic acid, 0.1% SDS, 1 mM Na3VO4, 1 mM NaF and protease inhibitors]. […] Following electro-transfer, the membranes were blocked in Blotto (5%, w/v) non-fat milk in 1×TBST [20 mM Tris, 0.8% (w/v) NaCl, pH 7.6, 0.1% (v/v) Tween 20]. Membranes were then incubated with primary antibodies against IRAK1 (Santa Cruz Biotechnology), total IκBα (Cell Signaling Technology), phospho-IκBα (Cell Signaling Technology) and Tubulin (Lab Vision) in Blotto for 2 hours. The membranes were washed in TBST and (where necessary) incubated with the HRP-conjugated secondary antibody in Blotto for 1 hour before washing extensively with TBST. HRP activity was visualized by utilizing either SuperSignal West Pico or Dura chemiluminescent detection systems (Pierce Biotechnology). […] The protein samples were separated by 10% NuPAGE MES precast gels (Invitrogen) and the extent of GST-IκBα phosphorylation was evaluated by western blotting using the antibody against phospho-IκBα (Cell Signaling Technology).
# [3] = tested on: NF-κB p65 subunit nuclear translocation; assay: nuclear translocation of NF-κB p65 / IRAK1 in LPS-stimulated RAW264.7 cells (fluorescence microscopy); type: cell-based; conditions: 5, 10 and 20 μM
# Experimental: Cells were pretreated with NPI-1387 (compound 24 under scheme 4 above) at 5, 10 and 20 μM for 1 hr, and then stimulated with 50 ng/ml LPS for 30 min. Coverslips were transferred to clean plates, washed twice in Dulbecco's phosphate buffered saline (DPBS), fixed in 10% formaldehyde for 10 min, and permeabilized with 0.2% Triton X-100 for additional 10 min. Blocking medium (DPBS, 2% BSA, 0.1% Triton X-100) was added for 2 h, and removed by aspiration. Polyclonal goat anti-p65 antibody (Santa Cruz Biotechnology) was added at a 1:1000 dilution for 1 hr. The wells were washed 3 times with DPBS containing 0.1% Triton X-100, and […] of Alexa-488-conjugated anti-goat antibody (1:1000 dilution, Molecular Probes) were added for 30 min. Wells were washed again, and the coverslips were mounted face-down on microscope slides using Vectashield (Vector) mounting medium. Slides were observed under an Olympus fluorescent microscope, images acquired using a Magnafire digital camera, and processed using Adobe Photoshop.
# [4] = tested on: IL-1 synthesis in RAW 264.7 cells; assay: SAC-induced IL-1 synthesis in RAW 264.7 cells; type: cell-based, Murine
# Experimental: (§1) Murine macrophage cells RAW 264.7 (1×10^6/ml) were pretreated for 30-60 minutes with varying doses of the synthetic compound of Formula (I) and a panel of analogs (diluted in 0.5% DMSO) prior to stimulation with various agents such as lipopolysaccharide (LPS) or a gram positive agent like heat-killed Staph aureus (SAC). Supernatants collected over a 72-hour period will be assayed for the levels of TNF-α, IL-1, IL-6, IL-10, IL-12 and other cytokines either by elisa or bioassay. Additional studies to evaluate the effects of the synthetic compound of Formulae (I), (II), (IIA) and (IIB) on cytokine signaling pathways such as, for example, Caspase-activity (Nr-1, Nr.3), transcription factors such as NF-κB, MAP-kinase activity (p38, ERK and JNK) will also be performed.
# [5] = tested on: IL-6 synthesis in RAW 264.7 cells; assay: SAC-induced IL-6 synthesis in RAW 264.7 cells; type: cell-based, Murine; conditions: for IL-6: SAC-induced
# Experimental: as §1
# RAW264.7 cells = assay: RAW264.7 cell viability / apoptosis, propidium iodide flow cytometry; type: cell-based, Murine; conditions: 10 μM
# Experimental: To determine whether the test compounds induce apoptosis, flow cytometric measurement of propidium iodide (PI) staining was performed after incubation of the cells with 0.005% PI, following published protocols. Cells were analyzed in a FACScan cytometer equipped with a 25-mW argon laser. The quantification of the percentage of apoptotic cells was calculated using a dot plot of the forward scatter against the PI fluorescence. Cell sorting and analysis of viable and apoptotic populations was performed to confirm the criteria of gating.
# [6] = tested on: TNF-α synthesis in RAW 264.7 cells; assay: SAC-induced TNF-α synthesis in RAW 264.7 cells; type: cell-based, Murine
# Experimental: as §1
# [7] = tested on: TNF-α synthesis in RAW 264.7 cells; assay: LPS-induced TNF-α synthesis in RAW 264.7 cells; type: cell-based, Murine
# Experimental: as §1
smiles,measurement,setting,value
"C=CC(=O)C1(C)CCCC2(C)C3=CCC(C)(C=C)C[C@@H]3CC[C@H]12 (stereo in doubt) [NPI-1387, 1-[(1S,4aS,7R)-1,4a,7-Trimethyl-7-vinyl-1,2,3,4,4a,6,7,8,8a,9,10,10a-dodecahydro-1-phenanthrenyl]-2-propen-1-one]",NF-κB DNA binding activity,[1],inhibited TNF-α or LPS-induced NF-κB DNA binding activity in both cell lines
same,NF-κB DNA binding activity,[2],inhibited TNF-α or LPS-induced NF-κB DNA binding activity in both cell lines
same,phosphorylation of IRAK1 (and its downstream target IκBα),IRAK1,inhibited the phosphorylation of endogenous IRAK1 and its downstream target IκBα in a dose-dependent manner
same,nuclear translocation of NF-κB (p65) / activated IRAK1,[3],inhibited the nuclear translocation of activated IRAK1 and NF-κB
C=C[C@@]1(C)CCC=C2[C@H]1CC[C@@H]1[C@](C)(C(=O)O)CCC[C@@]21C [TTL1],IL-1α,[4]; compound at 0.1 μg/ml,950 pg/mL
same,IL-1α,[4]; compound at 1 μg/ml,400 pg/mL
same,IL-1α,[4]; compound at 5.4 μg/ml,300 pg/mL
same,IL-6 synthesis (in words),[5],neither analog TTL1 nor TTL3 significantly inhibited IL-6 synthesis
same,IL-6,[5]; compound at 0.1 μg/ml,83 ng/mL
same,IL-6,[5]; compound at 1 μg/ml,86 ng/mL
same,IL-6,[5]; compound at 5.4 μg/ml,65 ng/mL
same,RAW264.7 cell viability,RAW264.7 cells,did not affect
same,TNF-α,[6]; compound at 0.1 μg/ml,250 ng/mL
same,TNF-α,[6]; compound at 1 μg/ml,285 ng/mL
same,TNF-α,[6]; compound at 5.4 μg/ml,150 ng/mL
same,TNF-α,"[7]; LPS-induced, compound at 0.1 μg/ml",57 ng/mL
same,TNF-α,"[7]; LPS-induced, compound at 1 μg/ml",60 ng/mL
same,TNF-α,"[7]; LPS-induced, compound at 5.4 μg/ml",38 ng/mL
C=C[C@@]1(C)CCC=C2[C@H]1CC[C@@H]1[C@](C)(C(=O)OC)CCC[C@@]21C [TTL3],IL-1α,[4]; compound at 0.001 μg/ml,200 pg/mL
same,IL-1α,[4]; compound at 0.01 μg/ml,220 pg/mL
same,IL-1α,[4]; compound at 0.1 μg/ml,190 pg/mL
same,IL-1α,[4]; compound at 1 μg/ml,180 pg/mL
same,IL-1α,[4]; compound at 10 μg/ml,170 pg/mL
same,IL-6 synthesis (in words),[5],neither analog TTL1 nor TTL3 significantly inhibited IL-6 synthesis
same,RAW264.7 cell viability,RAW264.7 cells,did not affect
same,TNF-α,[6]; compound at 0.001 μg/ml,80 ng/mL
same,TNF-α,[6]; compound at 0.01 μg/ml,75 ng/mL
same,TNF-α,[6]; compound at 0.1 μg/ml,85 ng/mL
same,TNF-α,[6]; compound at 1 μg/ml,60 ng/mL
same,TNF-α,[6]; compound at 10 μg/ml,80 ng/mL
same,TNF-α,[7]; LPS (1 μg/ml) + TTL3 1.0 μg/ml,13 ng/mL
same,TNF-α,[7]; LPS (1 μg/ml) + TTL3 1 × 10^−4 μg/ml,15 ng/mL
same,TNF-α,[7]; LPS (1 μg/ml) + TTL3 1 × 10^−5 μg/ml,10 ng/mL
same,TNF-α,[7]; LPS (1 μg/ml) + TTL3 1 × 10^−6 μg/ml,18 ng/mL
same,TNF-α,[7]; LPS (1 μg/ml) + TTL3 1 × 10^−7 μg/ml,41 ng/mL
same,greater activity than TTL1,[7]; TNF-α and IL-1 synthesis,approximately 100 times
